Results as given in the RNAGym collection of RNA variant scans (doi:10.7554/elife.90254).
Read counts are not given, so values of variants with three or more changes are uncertain.

B1: LINE1-mini (parent)
chain: GGCAGAGCUCAACACAGCGUGGCAAAGUGGCUGUGGCUAGACUGCC

Variants of: B1
Experiment: self-cleavage, relative activity (ratio to wild type); higher = more cleavage; in vitro, sequencing; the parent is a self-cleaving ribozyme

| Variant | self-cleavage |
| --- | --- |
| A12G A24G C31A G33U C37A C42U | 0.04 |
| C13A C23A C37G | 0.05 |
| A12C G40A C45U | 0.03 |
| C13A A14U G29U C37U C42U | 0.21 |
| C13A C15U G30A | 0.16 |
| A12U G17C G22U | 0.03 |
| C13A C18G C23G A25U G29A U38G U43G | 0.04 |
| C13A U28G G40C | 0.04 |
| A12G G17A A41G | 0.02 |
| A12C U34A G36C | 0.02 |
| C13A C15A U20C A25C A26C U34A | 0.03 |
| A12U C18U G44C | 0.04 |
| A12U G17U G19C C31U | 0.08 |
| A12U C13G C42U | 0.08 |
| C13A C18U G35C A39G | 0.14 |
| A12U C18U U20A C23G A24G | 0.38 |
| C13A A14C G19A A26U G36U | 0.15 |
| A12G G33U C45U | 0.05 |
| C13G C42A C46U | 0.3 |
| C13A G33C C45A | 0.02 |
| C13A A26G C31G | 0.04 |
| A12U G21A G27A | 0.27 |
| C13A A25G G27C | 0.07 |
| A12U A14C G33A | 0.03 |

| Variant | self-cleavage |
| --- | --- |
| A12U A14G A24C | 0.07 |
| A12U G21C C37G | 0 |
| A12U G21U U32A C37G G44U | 0.02 |
| A12G G21A G27C | 0.08 |
| A12U U28A U38G | 0.01 |
| C13G C18G G22C G36U | 0.06 |
| A12G C23A G33U G35A G40A G44A | 0.05 |
| C13G C15A A26G U32C | 0.04 |
| A12U U34G G40A | 0.01 |
| A12G G33U C42A | 0.02 |
| C13A U20C U34G | 0.02 |
| A12G A25U A26C G27C C37U | 0.1 |
| A12U A14C G33U U34G C45G | 0.01 |
| A12G G19U U28C C46U | 0.01 |
| C13A A14G A41U | 0.13 |
| C13A U28G C45G | 0.02 |
| A12U A24C G27A A41C | 0.03 |
| A12G C13U U32G C37G C42G | 0 |
| A12U C18U A26U | 0.75 |
| C13A C15U C45G | 0.05 |
| A12U U34C U43A | 0.04 |
| C13A C18A G19U G21U C37G | 0.03 |
| A12G G33A C42A | 0.04 |
| A12U U20G A24G G30C G35A G36C | 0.02 |

| Variant | self-cleavage |
| --- | --- |
| A12G C23U A26G C46G | 0.03 |
| C13A G29U G35A | 0.19 |
| C13A A14C C31U C45A | 0.05 |
| C13A G36U G40U G44A | 0.25 |
| A12U A24G G35C | 0.01 |
| C13A A26C C31G U34G | 0.05 |
| A12U G27C C42U | 0.02 |
| C13G A26C G30U | 0.05 |
| A12U C15A U32G C37A | 0.03 |
| C13A U28C C37U A41C | 0.02 |
| A12U A26U U34A | 0.03 |
| A12G G17C U20C | 0.02 |
| A12G C18A G33U | 0.03 |
| C13A U34C C45U | 0.04 |
| A12G G19U G30A | 0.01 |
| A12G G19U G30U | 0.03 |
| C13G C15A G44U | 0.04 |
| C13A C15G G17A A25C | 0.04 |
| A12G G21U U34A C45A | 0.19 |
| A12U C13U U28A C45A | 0.14 |
| A12U U32C A41C U43G | 0.05 |
| A12G A41U C46A | 0 |
| A12U C13G G30U G33A | 0.03 |
| C13A G21U C45G | 0.02 |

| Variant | self-cleavage |
| --- | --- |
| A12G C13A G17C G35U G40U C42U | 0.03 |
| C13A G30A U32C | 0.03 |
| C13G G17A A25C U32C C37A C46U | 0 |
| A12C U20G G30A | 0.03 |
| A12G G19U C23A | 0.01 |
| A12U U38C U43G | 0 |
| A12G A16G C31G G33U G40U | 0.21 |
| A12U C13A G17A A26C | 0.02 |
| C13A A16G G27A U43A | 0.02 |
| A12G G21U A24G | 0 |
| C13G A16G G36C G40A | 0 |
| A12U C15A G27A U28A G29A G33A | 0.04 |
| A12G A24U U34A | 0.02 |
| A12G C13G G29U | 0.17 |
| C13A C15A G17A G30C A39U | 0.03 |
| A12U G30U C37U | 0.01 |
| A12G A25U G36C | 0.01 |
| C13G A26U C45A | 0.18 |
| C13A G17U A41U C45U | 0.03 |
| C13A C37U G40A | 0.29 |
| C13G A16C A24C C42A | 0.03 |
| A12U C15U C18G G21A G35C C46G | 0.04 |
| C13A A14U G44U | 0.07 |
| A12G C18G A26C | 0 |

| Variant | self-cleavage |
| --- | --- |
| C13G C23A A26C G27U | 0.48 |
| C13A U38C C45G | 0.07 |
| C13G A39U G44U | 0.02 |
| C13A G21C C31U | 0.17 |
| A12G G22U G44A | 0.02 |
| C13A A14G G35C | 0.16 |
| A12U C13U G19A | 0.06 |
| A12U C15U G30A | 0.08 |
| C13A G21U U32A | 0.28 |
| A12U G27C G29U C31U C37A | 0 |
| C13A U28C C37U C42U | 0.05 |
| A12C U38G A39G | 0.01 |
| A12G C31G A41G C46U | 0.03 |
| A12G C15A G33C | 0.03 |
| C13A C18G G33U C42U | 0.02 |
| A12U G17U C31G G44A C45A | 0.06 |
| A12G A14C C23A G35C U43A | 0.05 |
| A12C U20A G21A U34A | 0.04 |
| C13G A14G G19U | 0.03 |
| A12G U28A G35U A41C | 0 |
| A12G G19U A25U G29U U32G G35U A39G | 0.01 |
| A12C U34C G35C | 0.04 |
| C13G C18G G22A U38C G44U C46U | 0.02 |
| C13A G33A G44C | 0.06 |

| Variant | self-cleavage |
| --- | --- |
| C13A C23A G27A C46G | 0.11 |
| C13A A14U A25G | 0.23 |
| C13A A14U U20A | 0.08 |
| C13A C18G A25U U34G A39U A41U | 0.08 |
| A12G G22U G40U | 0.03 |
| A12G A25C A39U | 0.06 |
| A12G U20G G40U | 0.03 |
| A12C U20G G29U | 0 |
| C13A A16U A26C U28G C31A | 0.06 |
| C13G G17C A25U C46A | 0.03 |
| A12U A25G U34A G35C C42A | 0.03 |
| A12G U32G C37G | 0.05 |
| A12U G21U U28G | 0.43 |
| A12U A39C C45U | 0.09 |
| C13A A14G C23A C46A | 0.03 |
| A12U U28C G35C | 0.02 |
| C13A U32C G33A | 0.01 |
| A12G G29A G40U | 0.08 |
| A12G G19A C31U G36U | 0.06 |
| A12G U20A A25U G40A | 0.05 |
| A12G U32A G40A G44C | 0.06 |
| C13G C18G G21C | 0.11 |
| C13G C15G A16U A39G | 0.07 |
| C13A G27U G35U | 0.76 |

| Variant | self-cleavage |
| --- | --- |
| C13A G22U A41U | 0.14 |
| C13A G19C G22C G33U | 0.01 |
| C13G A14G U32C | 0.02 |
| C13A A14C A41G | 0.07 |
| A12U C23A U28A U32A C37U | 0 |
| A12G G27C U38A | 0 |
| C13A U32C C37A | 0.06 |
| A12G G27C U32A | 0.05 |
| A12U C18A G27A U34C | 0.05 |
| A12U G30A C37U G44A | 0.02 |
| A12U U20C C31G G36A C46U | 0.01 |
| A12G U20A G35A | 0.01 |
| C13A G19A A41C C42G | 0.04 |
| C13A C15G A24C A39C | 0.08 |
| C13A C23A A26G G27A | 0.08 |
| C13G C18A U20A U28A | 0.11 |
| C13A G33C G36C | 0.02 |
| C13A C18A U20G | 0.03 |
| C13G A26C G29U G30U G33C | 0.04 |
| C13A G17U A25U | 0.09 |
| C13A G21A A24C G29A | 0.19 |
| A12U C18A C31U G33U | 0.03 |
| A12G G22U G27C | 0.02 |
